Values joined by “and” are separate entries in the source; they are usually repeats but may differ in a detail not shown here. Equal values may be shown once. In all, about 110,000 compounds went through this assay and about 230 (0.21%) showed an effect of 50% or more. The list shows a part of the results.

The text below walks through data of publication PMC6919601, “Identification of Plasmodium dipeptidyl aminopeptidase allosteric inhibitors by high throughput screening” (PLoS ONE, 2019).
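Note: 30 min substrate incubation versus DMSO and 10 µM JCP410 controls.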

Chain of DPAP1 (Q8IIJ9 whole entry, looked up): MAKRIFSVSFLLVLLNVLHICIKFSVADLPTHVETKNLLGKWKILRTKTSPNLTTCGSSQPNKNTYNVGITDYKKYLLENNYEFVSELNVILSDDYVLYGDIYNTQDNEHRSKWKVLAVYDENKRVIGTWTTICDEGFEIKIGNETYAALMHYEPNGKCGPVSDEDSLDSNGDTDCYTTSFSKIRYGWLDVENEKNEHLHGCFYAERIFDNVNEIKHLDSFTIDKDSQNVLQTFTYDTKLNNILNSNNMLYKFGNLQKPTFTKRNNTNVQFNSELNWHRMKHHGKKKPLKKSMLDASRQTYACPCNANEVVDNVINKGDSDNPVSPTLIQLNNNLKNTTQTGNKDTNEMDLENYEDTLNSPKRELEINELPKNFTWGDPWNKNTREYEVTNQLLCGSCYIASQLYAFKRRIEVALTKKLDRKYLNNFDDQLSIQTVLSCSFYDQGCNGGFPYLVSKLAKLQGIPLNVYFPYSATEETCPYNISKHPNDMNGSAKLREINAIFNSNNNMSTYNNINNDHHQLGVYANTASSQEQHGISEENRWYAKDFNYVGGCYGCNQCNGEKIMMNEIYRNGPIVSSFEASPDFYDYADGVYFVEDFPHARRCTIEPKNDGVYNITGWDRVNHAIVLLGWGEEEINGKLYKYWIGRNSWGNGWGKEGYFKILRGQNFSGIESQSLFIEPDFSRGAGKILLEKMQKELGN

This test addresses DPAP1 (Plasmodium falciparum, UniProt Q8IIJ9). As to the kind of experiment: primary screen, percent inhibition; read by cleavage of a fluorogenic dipeptide substrate; higher = more effect of the substance. The arrangement: species or system P. falciparum D10 trophozoite lysates; single well.
Regarding `COc1ccc(CSc2nc3ccncc3n2Cc2ccccc2F)cc1`, the “% Inhibition @ 10 uM” value is 2.65%. Next, `O=c1oc2ccc([N+](=O)[O-])cc2cc1-c1nc(-c2ccc(-c3ccccc3)cc2)cs1`: -0.268%; `OCCCCC/N=c1\cc(-c2ccccc2)oc2ccc(Cl)cc12`: -3.21%; `COc1ccc(C(=O)Cn2c(N3CCOCC3)nc3c2c(=O)n(C)c(=O)n3C)cc1`: -2.56%. Next, `N=c1ccccn1CC(O)COc1ccccc1` (stereo not drawn): 0.0289%; `COc1ccc(NC(=O)c2ccc(Cn3cc(Br)cn3)cc2)cc1OC`: -2.99%; `CCc1ccc2occ(CC(=O)Nc3sc4c(c3C(=O)NC)CCCC4)c2c1`: -2.4%.

Turning to `CC(Oc1ccc(C=C2C(=O)c3ccccc3C2=O)cc1)C(=O)O` (stereo not drawn), the “% Inhibition @ 10 uM” value is recorded as -5.28%. Next, `O=C(Nc1cccc(C(F)(F)F)c1)c1ccc(Cn2cc(Br)cn2)o1`: 30.9%; `O=C(c1coc2ccc(O)cc12)C1CC1`: -6.83%; `Cc1ccc(NC(=O)CCCC(=O)Nc2ccc(C)cc2C)c(C)c1`: -0.725%. As for `COC(=O)C(NC(=O)c1ccc(Cl)cc1Cl)C(C)C` (stereo not drawn), the “% Inhibition @ 10 uM” value is -3.26%.

Consider `CCOC(=O)c1nc2nc(-c3ccccc3)cc(C(F)(F)F)n2n1`, for which the “% Inhibition @ 10 uM” value is recorded as 3.48%. The result for `Cc1ccc(NC(=O)CNc2ccc(OC(C)C)cc2)cc1` reads -2.21%; that for `COc1ccc(NC(=O)CN(c2ccc(Br)cc2)S(C)(=O)=O)cc1OC`, -1.95%; that for `O=C(Nc1ccc(Cl)cc1Cl)Nc1ccccc1C(F)(F)F`, 4.54%.

With `CC1(C)CC2=Nc3nn(-c4ccccc4)c(O)c3C(c3ccccc3Cl)C2=C(O)C1` (stereo not drawn), the “% Inhibition @ 10 uM” value is -8.55%. For the compound `Cc1nnc(NC2CC2)c2c1nnn2Cc1ccccc1Cl`, the “% Inhibition @ 10 uM” value was determined as 3.08%. The result for `O=c1oc2ccccc2c(O)c1[N+](=O)[O-]` reads -4.35%.

Regarding `Cc1[nH]c2ccccc2c1/C=C/C(=O)c1ccncc1`, the “% Inhibition @ 10 uM” value stood at 6.96%. The result for `COc1ccc(/C=C/C(=O)O)cc1S(=O)(=O)N(C)CCO` reads 21.7%.

As to `CSc1ccc(C2C(C#N)=C(N)N(c3nc[nH]n3)C3=C2C(=O)CCC3)cc1` (stereo not drawn), the “% Inhibition @ 10 uM” value worked out at 0.343%. The result for `COc1ccc(N2CCN(Cc3ccccc3C(F)(F)F)CC2)cc1` reads 3.9%; that for `O=C(Nc1ccncc1)c1ccc(COc2ccccc2Cl)cc1`, -0.25% and 3.53%.

Take `Oc1nc2ncccc2nc1-c1ccccc1`: the “% Inhibition @ 10 uM” value was 2.39%. The result for `CCOc1ccc(C2C(C#N)=C(N)Oc3c2c(C)nn3-c2ccccc2)cc1` (stereo not drawn) reads -4.75%. The result for `CCS(=O)(=O)N1CCC(C(=O)NCCCN2CCCC(C)C2)CC1` (stereo not drawn) reads 0.514%. Consider `CCOc1ccc(NC(=O)c2ccccc2C(=O)O)cc1`, for which the “% Inhibition @ 10 uM” value was -5.46%. Next, `COc1ccccc1C1C2=C(CC(C)(C)CC2=O)N(C)C2=C1C(=O)CC(C)(C)C2`: -7.23%; `Cc1nnc(N2CCCC(C(=O)NCCCOC(C)C)C2)c2nn(-c3ccccc3)c(C)c12` (stereo not drawn): 5.36%. For the compound `C=CCOCC(O)CSCc1ccc(Cl)cc1` (stereo not drawn), the “% Inhibition @ 10 uM” value was found to be 1.7%. As for `N#CC1(NC(=O)[C@H](CC2CCCCC2)N[C@@H](c2cccc(-c3cccc(CO)c3)c2)C(F)(F)F)CC1`, the “% Inhibition @ 10 uM” value is -4.82%. The result for `CCCn1nnc(C(=O)N2CCCCC2)c1-c1ccccc1O` reads -4.35%. The result for `CSC1=NC2(CCN(S(=O)(=O)Cc3ccccc3)CC2)N=C1c1ccccc1` reads -1.23%; that for `Cc1ccc(OCCOCCN2CCNCC2)cc1C`, -2.05%; that for `CCN(CC)C(=O)/C(=C/c1ccccc1)NC(=O)c1ccco1`, -4.7%.

On to `N#CCNC(=O)[C@H](CS(=O)(=O)Cc1ccccc1)NC(=O)c1ccc2ccccc2n1`, for which the “% Inhibition @ 10 uM” value is reported as 1.35%. The result for `C=CCNC(=O)CN(CCc1ccccc1)S(=O)(=O)c1ccccc1` reads -1.6%; that for `CC1CCCCN1S(=O)(=O)c1ccc(C(=O)Nc2ccccc2F)cc1` (stereo not drawn), -0.171%.

In the case of `Clc1ccccc1OCc1nc(-c2ccc(-n3cccc3)cc2)no1`, the “% Inhibition @ 10 uM” value is -1.86%.

For `CNCC(O)COc1ccc(Cl)c(C)c1` (stereo not drawn), the “% Inhibition @ 10 uM” value is recorded as -2.91%. Next, `CCOC(=O)c1c(C)nc(Nc2nc3ccccc3o2)nc1CSc1ccc(C)cc1`: 5.5%; `CC(=O)N/C(=C/c1ccc2c(c1)OCO2)C(=O)NC(Cc1ccccc1)C(=O)O` (stereo not drawn): -4.7%. In the case of `O=C1C2CCCCN2C(=O)N1CCCN1CCN(c2cccc(C(F)(F)F)c2)CC1` (stereo not drawn), the “% Inhibition @ 10 uM” value came to 1.39%. The result for `Nc1cccnc1NCc1ccccc1` reads 2.34%.

With `CCC(C)(C)C1CCc2c(sc(NC(=O)c3cc(OC)cc(OC)c3)c2C(N)=O)C1` (stereo not drawn), the “% Inhibition @ 10 uM” value is reported as 6.39%. For `COc1cccc2c1OC(CCSC)N1N=C(c3cc(Cl)ccc3O)CC21` (stereo not drawn), the “% Inhibition @ 10 uM” value was -1.68%. The result for `O=C(O)c1[nH]cc2c3cccnc3c3ncccc3c12` reads 0.245%. Next, `COc1ccccc1N1CCN(Cc2ccccc2C(F)(F)F)CC1`: -3.99%. Next, `CC(=O)N1CCc2c([nH]c3ccccc23)C1c1ccc2c(c1)OCO2` (stereo not drawn): -3.44%; `CCOc1ccc(-c2cnc(NCc3cc(OC)ccc3OC)n2C)cc1`: -2.91%.
